The record followed here is paper PMC4336329 (PLoS ONE, 2015).

Out of some 310,000 compounds screened, about 2,200 (0.71%) showed an effect of 50% or more. Effects have a minus sign here. Some of the results follow.

In this assay the target is human ether-à-go-go-related gene (hERG) potassium channel (human, UniProt Q12809). As to the kind of experiment: primary screen, population patch clamp on CHO cells stably expressing hERG.
Sequence of human ether-à-go-go-related gene (hERG) potassium channel (Q12809 whole entry, looked up): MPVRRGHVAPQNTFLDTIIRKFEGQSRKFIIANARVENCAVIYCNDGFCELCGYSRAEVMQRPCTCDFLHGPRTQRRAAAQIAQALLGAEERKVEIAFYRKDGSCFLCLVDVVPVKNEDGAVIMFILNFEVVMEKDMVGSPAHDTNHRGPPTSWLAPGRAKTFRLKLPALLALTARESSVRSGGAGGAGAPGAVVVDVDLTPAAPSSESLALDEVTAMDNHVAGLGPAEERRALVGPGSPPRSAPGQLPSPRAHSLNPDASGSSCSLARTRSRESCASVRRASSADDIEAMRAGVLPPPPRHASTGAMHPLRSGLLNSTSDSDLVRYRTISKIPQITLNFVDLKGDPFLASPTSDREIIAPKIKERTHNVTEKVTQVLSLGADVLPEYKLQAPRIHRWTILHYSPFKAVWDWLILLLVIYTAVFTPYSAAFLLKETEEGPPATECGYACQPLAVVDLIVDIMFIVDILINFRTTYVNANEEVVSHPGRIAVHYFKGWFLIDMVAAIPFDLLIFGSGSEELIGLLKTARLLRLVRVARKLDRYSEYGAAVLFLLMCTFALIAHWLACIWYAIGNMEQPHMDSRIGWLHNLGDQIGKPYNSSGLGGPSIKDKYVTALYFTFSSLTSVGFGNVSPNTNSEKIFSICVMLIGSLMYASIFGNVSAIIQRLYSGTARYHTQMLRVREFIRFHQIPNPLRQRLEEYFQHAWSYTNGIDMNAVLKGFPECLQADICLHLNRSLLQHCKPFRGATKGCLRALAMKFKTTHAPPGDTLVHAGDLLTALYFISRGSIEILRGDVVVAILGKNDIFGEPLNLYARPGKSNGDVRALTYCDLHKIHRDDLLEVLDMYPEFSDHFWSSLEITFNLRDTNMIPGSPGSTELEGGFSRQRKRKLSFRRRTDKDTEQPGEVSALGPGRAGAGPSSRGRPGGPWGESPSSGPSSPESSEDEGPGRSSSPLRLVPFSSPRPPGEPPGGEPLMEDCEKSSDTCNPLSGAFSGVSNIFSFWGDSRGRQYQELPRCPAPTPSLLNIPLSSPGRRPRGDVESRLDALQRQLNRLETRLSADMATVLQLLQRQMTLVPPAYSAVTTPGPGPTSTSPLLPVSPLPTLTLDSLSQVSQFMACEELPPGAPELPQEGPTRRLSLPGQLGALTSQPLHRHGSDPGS
As for `CCC(=O)c1ccc(Oc2nc3c(c(=O)n(C)c(=O)n3C)n2CC)cc1`, the “hERG current change (%, negative = inhibition) at 1uM” value is recorded as 12.8%.
Take `CCOc1ccc(/C=N/N2CCN(Cc3ccccc3)CC2)cc1`: the “hERG current change (%, negative = inhibition) at 1uM” value is reported as 7.57%.
Take `COc1ccc(CN2C(=O)NC3(CCOc4ccccc43)C2=O)cc1F` (stereo not drawn): the “hERG current change (%, negative = inhibition) at 1uM” value was found to be 15.8%.
As for `CN(C)CCCC(C)(O)C(Cc1ccccc1)c1ccccc1.Cl` (stereo not drawn), the “hERG current change (%, negative = inhibition) at 1uM” value was 12.2%.
Take `CC1(c2ccc3c(c2)OCCO3)NC(=O)N(CC(=O)Nc2c(F)cccc2F)C1=O` (stereo not drawn): the “hERG current change (%, negative = inhibition) at 1uM” value amounted to 8.42%.
As to `O=C(COC(=O)C1CC(=O)N(CCc2ccccc2)C1)c1ccc[nH]1` (stereo not drawn), the “hERG current change (%, negative = inhibition) at 1uM” value was -24%.
On to `FC(F)(F)c1ccc(Oc2ccccc2Cl)nc1`, for which the “hERG current change (%, negative = inhibition) at 1uM” value came to 9.78%.
`CCN(CC)CCN1C(=O)c2ccccc2NC1c1cc(OC)c(OC)c(OC)c1` (stereo not drawn): the “hERG current change (%, negative = inhibition) at 1uM” value was -3.95%.
Take `CCCn1c(N)c(N(CCOC)C(=O)c2ccc(C#N)cc2)c(=O)[nH]c1=O`: the “hERG current change (%, negative = inhibition) at 1uM” value worked out at 16%.
Consider `CCOC(=O)Cc1csc(NS(=O)(=O)c2ccc([N+](=O)[O-])cc2)n1`, for which the “hERG current change (%, negative = inhibition) at 1uM” value came out at 10.8%.
With `CC(=O)Nc1cccc(NC(=O)COc2ccc3c(c2)CCC3)c1`, the “hERG current change (%, negative = inhibition) at 1uM” value is on record as 6.87%.
Then `COCCNC(=O)C(c1cccs1)N(Cc1ccccc1)C(=O)Cn1nnc2ccccc21` (stereo not drawn), with 4.06%.
To `CCOC(=O)NC(=O)/C(C#N)=N\Nc1cccc(Cl)c1` belongs 11.1%.
In the case of `Cc1cccc(NC(=O)COC(=O)c2ccc(C)c(S(=O)(=O)N3CCCCC3)c2)c1`, the “hERG current change (%, negative = inhibition) at 1uM” value is recorded as -0.561%.
Turning to `CCCN(CCC)CCCNC(=O)C1CCC(CNS(=O)(=O)c2cccc3nsnc23)CC1` (stereo not drawn), the “hERG current change (%, negative = inhibition) at 1uM” value is recorded as 9.03%.
With `COc1cccc(N2CC(=O)Nc3c(oc4nc(-c5ccccc5)cc(C)c34)C2=O)c1`, the “hERG current change (%, negative = inhibition) at 1uM” value is reported as 9.86%.
Turning to `CC1CCN(S(=O)(=O)c2ccc(C(C)C)cc2)CC1`, the “hERG current change (%, negative = inhibition) at 1uM” value is given as 21.6%.
For the compound `CC(=O)NC(c1cccc([N+](=O)[O-])c1)c1c(OC(C)=O)ccc2ccccc12` (stereo not drawn), the “hERG current change (%, negative = inhibition) at 1uM” value is 3.02%.
For the compound `CC1CC(C)CN(c2oc(-c3ccco3)nc2C#N)C1` (stereo not drawn), the “hERG current change (%, negative = inhibition) at 1uM” value was 9.03%.
Consider `NC(=O)c1nsc(C(=O)N(c2cccc(O)c2)C(C(=O)NC2CCCC2)c2ccc(Cl)cc2)c1N` (stereo not drawn), for which the “hERG current change (%, negative = inhibition) at 1uM” value was found to be 5.85%.
As for `CCc1ccc2nc(N(CCN(C)C)C(=O)/C=C/c3cccs3)sc2c1.Cl`, the “hERG current change (%, negative = inhibition) at 1uM” value is on record as 3.37%.
With `CC(=O)N/C(=C/c1ccc2c(c1)OCO2)C(=O)NCC(=O)O`, the “hERG current change (%, negative = inhibition) at 1uM” value is reported as 13.2%.
On to `CC1CCN(S(=O)(=O)c2ccc(NC(=O)CN3CCOCC3)cc2)CC1`, for which the “hERG current change (%, negative = inhibition) at 1uM” value is on record as -6.08%.
On to `COc1ccccc1CNC(=O)N1CCN(S(=O)(=O)c2ccc(Cl)cc2)CC1`, for which the “hERG current change (%, negative = inhibition) at 1uM” value was determined as 11.1%.
Consider `CN(c1ccc(C(=O)N2CCc3ccccc3C2)cc1)S(C)(=O)=O`, for which the “hERG current change (%, negative = inhibition) at 1uM” value is reported as -2.2%.
Turning to `O=C1CC(NS(=O)(=O)c2cccnc2)CN1c1cccc(F)c1` (stereo not drawn), the “hERG current change (%, negative = inhibition) at 1uM” value is listed as 10.3%.
As to `Cc1ccc(C[n+]2cc(-c3ccc(Cl)cc3)n3c2CCC3)cc1.[Cl-]`, the “hERG current change (%, negative = inhibition) at 1uM” value was -14.5%.
Take `N#CCc1ccc(NS(=O)(=O)c2cccs2)cc1`: the “hERG current change (%, negative = inhibition) at 1uM” value is -0.91%.
For `NCCCC[C@H]1CN=C(N)N1CCCCC1CCCCC1`, the “hERG current change (%, negative = inhibition) at 1uM” value is 6.58%.
To `COc1ccccc1/C=N/OC(=O)c1ccc(C)cc1` belongs 7.27%; to `Cc1c(C(=O)Nc2ccc(S(=O)(=O)NCC3CCCO3)cc2)cccc1[N+](=O)[O-]` (stereo not drawn), -3.96%; to `O=C(CN1C(=O)c2ccccc2S1(=O)=O)NCc1ccc(F)cc1`, 16.7%.
`CCN(Cc1ccccc1)C1CCN(Cc2ccccc2)CC1`: the “hERG current change (%, negative = inhibition) at 1uM” value worked out at 7.92%.
With `O=C1CNC(=S)N1Cc1ccc(Cl)cc1`, the “hERG current change (%, negative = inhibition) at 1uM” value came to 13.3%.
`CC12CC3CC(C)(C1)CC(C(=O)NC(=S)N1CCCCC1)(C3)C2`: the “hERG current change (%, negative = inhibition) at 1uM” value is recorded as 8.07%.
For the compound `COc1cc(/C=N/N2CCN(Cc3ccc(Cl)cc3)CC2)cc(Br)c1O`, the “hERG current change (%, negative = inhibition) at 1uM” value is recorded as 9.38%.
As to `CCOC(=O)c1cc(NC(=O)c2ccc(OC)cc2)c(=O)oc1-c1ccccc1`, the “hERG current change (%, negative = inhibition) at 1uM” value is recorded as 5.82%.
For `CC(C)C1CC(C(=O)Nc2ccccc2)C(=O)O1` (stereo not drawn), the “hERG current change (%, negative = inhibition) at 1uM” value is given as 13.4%.
`COc1ccc(N2CCN(C(=O)c3cccc(S(=O)(=O)N4CCOCC4)c3)CC2)cc1`: the “hERG current change (%, negative = inhibition) at 1uM” value worked out at 14.7%.
As for `COC(=O)CSc1nsc(SCC(=O)OC)n1`, the “hERG current change (%, negative = inhibition) at 1uM” value was -0.203%.
In the case of `COc1cc(NC(=O)COC(=O)/C=C/c2ccccc2Cl)cc(OC)c1`, the “hERG current change (%, negative = inhibition) at 1uM” value came out at 10.1%.
For the compound `Cc1nnc(SCC(=O)NNC(=O)COc2ccc(Cl)cc2)s1`, the “hERG current change (%, negative = inhibition) at 1uM” value is reported as 11.9%.
`Cc1[nH]c2ccccc2c1C(=O)C(=O)N1CC=C(c2ccccc2)CC1`: the “hERG current change (%, negative = inhibition) at 1uM” value is reported as -1.07%.
Regarding `Cc1c(N/C(=N/S(=O)(=O)c2cc([N+](=O)[O-])ccc2Cl)c2ccccc2)c(=O)n(-c2ccccc2)n1C`, the “hERG current change (%, negative = inhibition) at 1uM” value is 2.51%.
For the compound `COc1ccc(CN(C(=O)CN2C(=O)NC3(CCC(C)CC3)C2=O)C(C)Cc2cccs2)cc1` (stereo not drawn), the “hERG current change (%, negative = inhibition) at 1uM” value is on record as -13.7%.
As for `COc1ccc(Br)cc1C1CC(=O)C(C)C(c2cc(Br)ccc2OC)N1` (stereo not drawn), the “hERG current change (%, negative = inhibition) at 1uM” value amounted to 17.3%.
Then `c1ccc(-c2ncnc3nc4n(c23)CCC4)cc1`, with 9.11%; and `COc1ccc(-c2sc3cc(OC)c(OC)cc3c2C#CCCO)cc1`, with 15.5%; and `Cc1ccccc1N1CCN(Cc2ccc(Br)o2)CC1`, with 4.76%.
To `CCN1C(=O)/C(=C\N(C)C)NC1=S` belongs 12.5%.
Then `C[C@H](NC(=O)CCCn1nnc2ccccc2c1=O)C(=O)O`, with 2.22%; and `CCc1ccc2c(CN3CCc4ccccc43)cc(=O)oc2c1`, with 12.7%.
Turning to `CC1(C)CC(=O)C2=C(C1)N1CCCCC1CC2=O` (stereo not drawn), the “hERG current change (%, negative = inhibition) at 1uM” value is 4.55%.
In the case of `Cc1ccc(C)c(N2CCN(C(=O)CCn3c(=S)[nH]c4cc5c(cc4c3=O)OCO5)CC2)c1`, the “hERG current change (%, negative = inhibition) at 1uM” value is reported as 5.54%.
For `COc1ccc(C(C)=O)cc1COC(=O)CNC(=O)c1ccc(F)cc1`, the “hERG current change (%, negative = inhibition) at 1uM” value is listed as 5.59%.
Turning to `Cc1ccc(-n2c(CNc3ccc(F)cc3)nnc2SCC(=O)O)cc1`, the “hERG current change (%, negative = inhibition) at 1uM” value is on record as 14.7%.
As to `CCOc1cccc(OCCOCCNC(C)(C)C)c1.O=C(O)C(=O)O`, the “hERG current change (%, negative = inhibition) at 1uM” value is on record as 11.7%.
